Test results published in the supplement of paper PMC3334620.
The full ranking holds about 33,000 sequences; the median of “E-score (-0.5 to 0.5)” is about -0.011, and the highest 2% start at about 0.28. Some of the results follow.

Target: T1, Gcr1 (UniProt P07261)
T1 sequence: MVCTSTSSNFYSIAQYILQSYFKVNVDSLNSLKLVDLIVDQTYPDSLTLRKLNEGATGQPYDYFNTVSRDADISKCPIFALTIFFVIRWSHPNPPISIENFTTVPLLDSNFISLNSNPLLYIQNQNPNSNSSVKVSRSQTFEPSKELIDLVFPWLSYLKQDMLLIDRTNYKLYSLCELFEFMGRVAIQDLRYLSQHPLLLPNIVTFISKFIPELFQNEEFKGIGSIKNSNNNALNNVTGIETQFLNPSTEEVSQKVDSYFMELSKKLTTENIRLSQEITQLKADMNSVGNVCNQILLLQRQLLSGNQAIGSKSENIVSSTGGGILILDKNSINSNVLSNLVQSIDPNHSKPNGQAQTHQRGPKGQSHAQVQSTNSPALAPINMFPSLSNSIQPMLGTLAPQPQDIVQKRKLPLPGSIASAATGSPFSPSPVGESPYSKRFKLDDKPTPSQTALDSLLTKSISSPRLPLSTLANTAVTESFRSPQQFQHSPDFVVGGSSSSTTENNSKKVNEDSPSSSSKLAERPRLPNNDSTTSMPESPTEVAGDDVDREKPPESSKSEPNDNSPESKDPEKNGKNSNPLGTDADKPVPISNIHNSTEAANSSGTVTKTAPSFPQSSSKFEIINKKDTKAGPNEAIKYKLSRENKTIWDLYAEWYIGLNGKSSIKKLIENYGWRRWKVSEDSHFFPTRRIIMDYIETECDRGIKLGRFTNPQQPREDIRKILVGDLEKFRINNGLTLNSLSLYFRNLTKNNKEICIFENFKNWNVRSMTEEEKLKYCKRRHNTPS
Test: PBM E-score (8-mer binding enrichment) (E-score (-0.5 to 0.5)); higher = stronger / more preferred TF binding; most listed sequences are background and not binding sites
Details: protein concentration: 100 nM; construct: GST-full length
Outline: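 E-scores (a modified Wilcoxon-Mann-Whitney statistic) were assigned by the Universal PBM Analysis Suite to every ungapped eight-base word pooled with its reverse complement. The input came from universal all-10-mer Agilent arrays made double-stranded by primer extension and probed with GST-tagged yeast transcription factors at about 100-200 nM. Fluorescent anti-GST detected bound protein, and masliner normalised the scans.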

| Sequence | PBM E-score |
| --- | --- |
| ATTCACTG | -0.0504 |
| AAAACTCT | -0.158 |
| CACTCGCA | -0.0706 |
| ATAGGCCA | -0.307 |
| CCCACAAC | 0.102 |
| CGGTGGGA | 0.0886 |
| CCCTGTAG | 0.107 |
| ATCTGAAA | -0.0813 |
| AGACGTCC | -0.00119 |
| GATACTGC | -0.205 |
| CACCGGGG | -0.0978 |
| TAGATAAA | 0.0366 |
| CACTCAAC | -0.132 |
| GGTGGATA | -0.0366 |
| ACGAAACG | -0.14 |
| AGGTCCTG | 0.0546 |
| AGAGCTTC | 0.267 |
| AAACCACA | 0.135 |
| GACAAGTA | 0.112 |
| ACAAACCG | -0.121 |
| CGCTCGAA | -0.237 |
| CCGTTTTA | 0.0582 |
| CCAATTGG | 0.0314 |
| ACATAGTG | 0.0378 |
| GCTGCTTA | 0.239 |

| Sequence | PBM E-score |
| --- | --- |
| GACTAACC | -0.136 |
| CAAGGGAG | -0.186 |
| GCGGGAGC | 0.0458 |
| AAGCCGGT | 0.0536 |
| ATGTATGC | 0.00976 |
| CCGTACGC | -0.183 |
| ATCCCCAT | 0.203 |
| CGTAGATC | -0.0785 |
| ACTAGACA | 0.0871 |
| CCCCATCA | -0.0694 |
| CAGCTATC | -0.147 |
| ATCTAATA | 0.0726 |
| AAAGACTA | -0.11 |
| CGTCCTAG | 0.0236 |
| AGCTTCGC | 0.173 |
| TATTGTGA | 0.00375 |
| AGAATAGG | 0.153 |
| ATGCAGCG | -0.132 |
| AAAACGAC | 0.0306 |
| CCTGCCAG | -0.111 |
| ACGTTCCG | -0.00756 |
| GTTCCGGA | 0.0744 |
| ATGATCCG | -0.0492 |
| AGTGGTAC | 0.252 |
| AGAGGATA | -0.0247 |

| Sequence | PBM E-score |
| --- | --- |
| GCGACCCA | -0.0276 |
| CTTTCCTC | 0.0224 |
| CCCAATCC | -0.0645 |
| CCATCAGC | -0.0217 |
| GGAGACAA | 0.0568 |
| CCAGGTTC | 0.00618 |
| AATCCTAT | -0.0573 |
| GGCCAGCA | -0.034 |
| CAAAGGTG | -0.0827 |
| GCTGTGCA | -0.109 |
| CCCCCCGC | -0.152 |
| GGCAGGCC | -0.274 |
| ACGCGAGC | -0.159 |
| AGGCGCCT | 0.321 |
| ATGAGAAG | -0.0687 |
| AGCTGTTG | -0.071 |
| TCGAGTAA | 0.088 |
| CTTGGGTC | -0.0905 |
| AGGCAATA | -0.118 |
| TTGGAAAA | -0.138 |
| GCAGTAGC | -0.066 |
| AACGAATA | 0.0819 |
| CACCCTCG | 0.0182 |
| ACGGGGAT | 0.0712 |
| CAAACTGG | 0.0331 |

| Sequence | PBM E-score |
| --- | --- |
| GAGGTCCA | -0.0665 |
| CACAGAAC | -0.177 |
| GTGTCTCA | -0.121 |
| CAGCCATA | 0.022 |
| CTAGGGAC | 0.0174 |
| AAGTCTGA | -0.0988 |
| CGAGGCCG | -0.151 |
| CACGTGTA | 0.0946 |
| CCACATGG | -0.0105 |
| GACATCTA | 0.127 |
| AGTACGAC | -0.0576 |
| AGGAGAAG | 0.26 |
| AGCCATTC | 0.0765 |
| CTTGTCAA | 0.0358 |
| AATAATAT | 0.0273 |
| AAAATAAT | 0.186 |
| CACCACGA | 0.0795 |
| AGACACAG | -0.0347 |
| ACGGCATG | -0.302 |
| CAGTATGA | 0.0724 |
| CGGTATGC | -0.186 |
| GGAAGCTA | 0.457 |
| CTGGTTGA | -0.09 |
| GACCTGTA | 0.057 |
| CCAATAAA | 0.212 |

| Sequence | PBM E-score |
| --- | --- |
| AGTAGCGA | -0.151 |
| AGTCCGGA | 0.0284 |
| ATAAAGGA | 0.0403 |
| ACATTTGG | 0.138 |
| GTAGCTGA | -0.023 |
| CGAAGGTA | -0.0866 |
| GCACAGAC | 0.00749 |
| AGACACAT | -0.16 |
| CCCCGTCG | 0.00224 |
| CTCGATAA | 0.123 |
| AAAAGAAC | -0.0325 |
| ATTATTCC | 0.103 |
| ACTCACAT | -0.166 |
| GTGCAAGA | -0.0182 |
| ATGTGACG | -0.113 |
| ACGCAGAC | -0.0874 |
| ATGGGTGG | -0.0217 |
| ACCGTTCA | -0.195 |
| GCTGAGCA | -0.0824 |
| GAGCGACA | -0.0391 |
| CTTTAAGA | 0.219 |
| GAAAGTGC | 0.0252 |
| CACAGTAA | -0.0514 |
| GTTAACCA | -0.014 |
| GCCCGCCC | 0.0747 |

| Sequence | PBM E-score |
| --- | --- |
| GTGAACTA | 0.0565 |
| CTCTCGAA | -0.125 |
| ACCTACGG | -0.27 |
| AAAAATAC | 0.0293 |
| ACAAACTC | 0.0236 |
| GGATATGA | 0.0405 |
| CGGAAGAG | -0.141 |
| GAGCGCAC | -0.133 |
| GTCATATA | -0.00182 |
| ATCAGGCC | -0.0847 |
| GAATTTCC | 0.082 |
| AACTAGAC | 0.0109 |
| CGTATACG | 0.229 |
| AGCTCGAG | 0.188 |
| TGCCGCCA | -0.0269 |
| GAAGGAAC | -0.0139 |
| AATCAGAT | -0.0345 |
| AAGTCGGA | 0.0426 |
| AGAATGAC | -0.184 |
| ACCTCAGG | 0.0232 |
| GTTCCAAC | 0.0801 |
| ACTCGCTG | -0.027 |
| ACCAATCG | -0.057 |
| GTCCGGAC | -0.24 |
| CACCCGGC | -0.0953 |

| Sequence | PBM E-score |
| --- | --- |
| CTCGCCAG | -0.0824 |
| TAGTTACA | 0.108 |
| AAGTGAAT | -0.00472 |
| CAGTCTTC | -0.0594 |
| CAGAGGCG | -0.024 |
| AGTATGCA | 0.0208 |
| AAGAGTTG | -0.0408 |
| GCGGACAA | -0.155 |
| AGGGAGGG | 0.0631 |
| GGCTATCA | -0.108 |
| AGTAGTGA | -0.155 |
| AGAGGGAT | -0.141 |
| CTCTACCA | -0.215 |
| CACTCGAA | -0.00234 |
| CACTATCG | 0.0304 |
| TGATGGCA | -0.0703 |
| ATGATTGC | -0.192 |
| AGCTTCGG | 0.17 |
| CGATACTA | 0.0787 |
| CTTCCGGC | 0.111 |
| CCTCGAGG | 0.031 |
| CACTGGCC | -0.235 |
